# Measurements from ChEMBL document CHEMBL4888484, “Replenishing the malaria drug discovery pipeline: Screening and hit evaluation of the MMV Hit Generation Library 1 (HGL1) against asexual blood stage Plasmodium falciparum ,using a nano luciferase reporter read-out” (2022).
# About 540 (0.36%) of roughly 150,000 compounds showed an effect of 50% or more. The list shows a part of the results.
# System: Plasmodium falciparum
# Assay: Primary screen in NF54 nanoGlo assay, in single point, at 2uM, 72h; a lower Z score goes with more inhibition
# Assay type: functional, Erythrocyte
# Conditions: timepoint 72 hour
SMILES,% Inhibition [%],Z score
COc1ccc(CC(=O)N2CCN(c3cc(C)n4cnnc4n3)CC2)cc1OC,-12,1.54
CCn1nnc(NC(=O)c2ccc3c(c2)OCCO3)n1,-6,0.82
CCn1ccc(CN(C)Cc2cnn(C(C)C)c2)n1,2,-0.23
Cc1[nH][nH]c(=O)c1CC(=O)N1CCC[C@H](c2nc3ccccc3n2C)C1,9,-1.36
Cn1cc(NC(=O)[C@H]2CC(=O)N(c3[nH]nc4ccccc34)C2)cn1,4,-0.52
COCCn1ccnc1CNCCCc1ccccc1F,-9,1.16
Cc1nnc(N2CCC[C@@]3(C=Cc4ccccc4O3)C2)o1,0,-0.04
COc1ccc(N2C(=O)N[C@@H](CC(=O)N3CCC(c4ccccc4)CC3)C2=O)cc1,-14,2.3
COc1ccccc1[C@@H]1CC(c2cccc(C)c2)=NN1C(=O)CN1CCC(C)CC1,-11,2.14
O=C(c1ccc(Cl)c(S(=O)(=O)N2CCCCCC2)c1)N1CCC[C@H](C(F)(F)F)C1,6,-1.09
COc1ccc(-c2cnn3c(C)cc(C)nc23)cc1S(=O)(=O)Nc1c(C)cc(C)cc1C,-11,1.08
CCC(C)S(=O)(=O)NC(=O)C1CC=CCC1 (stereo unspecified),3,-0.42
Cc1cc(C(=O)NCCCOC[C@H]2CCCO2)no1,-13,1.7
CCc1cc(-c2cccc(C(=O)N3C[C@@H]4CC[C@H](C3)C(=O)N4)c2)nc(C)n1,-4,0.67
COc1ccnc(N2CCC3(CCC(=O)N([C@H]4CC[C@H](O)CC4)C3)CC2)n1,-7,1.5
COCc1cc(Cl)ccc1NC(=O)NC12CC1COC2(C)C (stereo unspecified),-16,3.03
Cn1ncc(NC(=O)Cn2ccc3cc(-c4cccc5cccnc45)ccc32)n1,3,-0.64
COc1ccc(N2CCN(C(=O)c3ccc4c(c3)OCO4)[C@@H](C)C2=O)c(OC)c1,-5,0.58
Cc1nn(-c2ccc(F)cc2)c2nc(Cc3ccccc3)nc(N3CCCN(C(=O)c4cccc(Cl)c4)CC3)c12,0,0.05
Cc1ccc(F)cc1C(=O)N1CC[C@H](N2CCN(C)CC2)[C@H](CCC(=O)O)C1,-6,1.13
COC1CCN(C2CCN(C(=O)Cc3ccc(Br)cc3)CC2)CC1,1,-0.19

SMILES,% Inhibition [%],Z score
O=C(NCc1cccnc1)c1ccc2c(=O)n(-c3cccc(Cl)c3)cnc2c1,-1,0.18
CNC(=O)NCC(=O)Nc1ccc2nc(OC)sc2c1,-6,0.68
CN1CCC(NC(=O)N(C)[C@@H](c2ccccc2)c2ccccn2)CC1,6,-0.66
COC(=O)c1c(NC(=O)[C@@H]2CCCO2)c2cc(N)cnc2n1CCc1ccccc1,-1,0.08
CCC(C)c1cc(C(=O)Nc2ccnn2C(C)C2CC2)on1 (stereo unspecified),-9,1.34
CC[C@@]1(CNCc2ccccc2)OCCc2ccccc21,13,-2.32
CN(C)C(=O)CN(C)S(=O)(=O)c1c(Br)cc(C(=O)C(Cl)(Cl)Cl)n1C,-2,0.14
CCCOc1ccccc1C#Cc1ccc(=O)n(CCO)c1,24,-3.08
Cc1cccc(C)c1C(=O)N1C[C@@H]2CN(C3CCCC3)C[C@]2(C(=O)O)C1,-9,1.41
Cc1nn(CC(=O)Nc2ccccc2)c(C)c1Cc1ccccc1,-12,1.82
O=C1CCN(C(=O)C2=CCCC2)CCN(c2nc3cc(Cl)cc(Cl)c3o2)CCN1,-3,0.48
Cc1[nH]c(C)c(S(=O)(=O)NCc2cccc(Cl)c2)c1-c1nnc(C2CC2)o1,-20,3.98
Cc1nn(CC(=O)N2[C@@H]3CC[C@H]2CNC(=O)C3)c(=O)n1Cc1ccccc1,4,-0.54
Cc1nn(-c2ccccc2)c(C)c1CN=C(N)N1CCCC1,-4,0.58
Cc1[nH]c2c(c1C(=O)N[C@@H](C)Cn1cncn1)C(=O)CCC2,-12,1.71
Cc1noc(C)c1Cn1nc2n(c1=O)C(=O)N(c1ccccc1)C2,10,-1.23
CCCc1nc(C)c(CN2CC(=O)N3CC[C@@H](O)C[C@H]3C2=O)s1,3,-0.34
O=C(C[C@H]1C(=O)NCCN1Cc1ccc2ccccc2c1)NC1CCCCCC1,-4,0.69
CC1=C(C(=O)NC(C)(C)c2nc3ccccc3n2C)CCCO1,-2,0.23
CC(C)N(CC(C)(C)O)C(=O)NCc1nnc(C(C)(C)C)s1,-4,0.41
Cc1ccccc1CNC(=O)C1CCC(C(F)(F)F)NC1=O (stereo unspecified),-3,0.44

SMILES,% Inhibition [%],Z score
Cn1cc(C#N)cc1C(=O)OC1C2CCOC2C12CCC2 (stereo unspecified),7,-1.15
Cc1nn(C(F)F)cc1S(=O)(=O)NCc1ccccc1N1CCC(C)CC1,4,-0.56
Nc1ccc(CC(=O)OC2CCCC2)cc1,2,-0.35
Cc1ccc2ncc(C(=O)N3CCC(C(F)F)CC3)c(=O)n2c1,-18,3.13
O=C1C[C@H](c2nc(C3CC3)nn2-c2ccccc2)c2ccccc21,9,-1.53
CCC(CC)C(=O)N1CCC(Oc2ccc(CN(C)Cc3cnn(C)c3)cc2)CC1,-15,1.96
O=S(=O)(NC1=NN2C(=NC(c3ccc(Cl)cc3)=C[C@H]2c2ccc(F)cc2)N1)c1ccccc1,-7,0.73
CC[C@H](C)c1n[nH]c2c1CN(C(=O)CN1C(=O)c3ccccc3C1=O)CC2,-11,2.01
CC1(C(=O)NCc2ccc(F)cc2F)CCN(C(=O)CC2CCCC2)CC1,32,-0.32
CC(C)O[C@@H](C)C(=O)NCc1cccc(Cl)c1F,-7,1.28
CCC[C@H]1CN(S(=O)(=O)C2CC2)C[C@@H]1Nc1cncc(C(N)=O)n1,-7,1.16
COc1ccc(CN2C(=O)c3cc4oc(C)cc4n3C[C@@]2(C)C(=O)NC2CCCCC2)cc1,11,-2.04
CCOC(=O)c1cc(NC(=O)c2ccc3cc[nH]c3c2)[nH]n1,-1,0.17
CCN1CCN(CC(=O)Nc2cc(C)no2)c2ccccc21,-5,0.68
Cc1c(CC(N)=O)c2c(n1Cc1ccc(F)cc1)CCCC2=O,-13,1.37
CC(C)c1nccn1C1CN(C(=O)Nc2ccccc2)C1,-5,0.65
Cc1cnc(N(C)Cc2ccncn2)nc1N(C)C,-10,1.37
COC(=O)c1ccc(CNC(=O)c2ccc[nH]2)nc1C1CC1,29,-3.27
CCc1cnccc1C(=O)OC[C@H]1CCCN1c1ccc(C)nn1,-8,0.84
COC(=O)c1cc(CNC(=O)Cc2ccccc2C)cc(NC(=O)Cn2cccn2)c1,-13,1.74
CC[C@@H](C(=O)NCc1cccc(OC)c1)n1nc(C)c2nn(-c3ccccc3)c(C)c2c1=O,7,-1.03

SMILES,% Inhibition [%],Z score
O=C(Cc1cnn(-c2ccccc2)c1)N1CCc2ccccc2C1,1,-0.17
CCS(=O)(=O)NCc1cccnc1,-18,1.81
O=C(NC(c1ccccc1)c1cccs1)C1CCCO1 (stereo unspecified),-11,1.57
Cc1cnn(C(C)C(C)NC(C)c2nnc(C)o2)c1 (stereo unspecified),-5,0.76
O=C(NC[C@H]1CCCN1c1nccs1)c1cccnc1,-17,3.26
Cc1n[nH]c(=O)nc1Nc1ccc2c(c1)OCO2,-2,0.33
COCc1csc(C(=O)NCC2(CC#N)CC2)c1,2,-0.32
CCC(C)NC(=O)C1CC(C)N(Cc2ccn(C)c(=O)c2)c2ccccc21 (stereo unspecified),-8,0.81
Cc1cccc(S(=O)(=O)N2CC3CN(C(=O)c4ccco4)CC(C2)O3)c1,-21,1.84
CCOCCS(=O)(=O)N1C2CCC1CC(O)(Cc1ccc(F)cc1F)C2 (stereo unspecified),-17,1.91
CCN1C(=O)c2cc(NC(=O)c3cc(C)cc(C)c3)ccc2Oc2ccccc21,-9,1.09
COC(=O)[C@@H](C)CN(Cc1ccccc1)Cc1ncc(-c2ccc(OC)cc2)o1,0,0
COc1cc2c(cc1F)CN(C(=O)c1ccnnc1C)CC2,-4,0.68
COCC1(CNC(=O)CN2CCOCC2)CCCC1,-4,0.62
COc1ccc(NC(=O)[C@H](C(C)C)N(C)C)cn1,-12,2.53
O=C(N[C@@H](Cc1ccccc1)C(=O)OCc1ccc(Cl)cc1)OCc1ccccc1,-7,1
CC(C)(C)C(=O)N1CCC(COc2ccc(C#N)cc2Cl)CC1,6,-1.06
CCc1nc2c(s1)[C@@H](N(C)CC1(CC(=O)O)CC1)CCC2,-7,0.89
CC(=O)Nc1c(C)cc(C)c(CNC(=O)COc2ccc3c(c2)OCO3)c1C,-6,0.94
CC1([C@@](O)(C#CC[N+]2(C)CCCCC2)c2ccccc2)CCCC1,60,-9.64
